The results in this text go back to ChEMBL document CHEMBL4888484, “Replenishing the malaria drug discovery pipeline: Screening and hit evaluation of the MMV Hit Generation Library 1 (HGL1) against asexual blood stage Plasmodium falciparum ,using a nano luciferase reporter read-out” (2022).

Among all 150,000 compounds or so, about 540 (0.36%) showed an effect of 50% or more. The list shows a part of the results.

This experiment relates to Plasmodium falciparum. The experiment can be described thus: Primary screen in NF54 nanoGlo assay, in single point, at 2uM, 72h; a lower Z score goes with more inhibition. It is filed as functional, Erythrocyte. The note with it: timepoint 72 hour.
Regarding `Cc1ccc2[nH]cc(-c3nc(C)cc(C(=O)O)n3)c2c1`, the “% Inhibition” value is recorded as -12% and the Z score was found to be 1.29.
As for `Cc1cccc(C2(C(=O)NCCn3ncnn3)CCCCC2)c1`, the “% Inhibition” value is on record as -6% and the Z score was 0.95.
On to `CCN(CC)c1nc2c(c(=O)n(C)c(=O)n2C)n1CC(=O)c1ccc(OC)c(OC)c1`, for which the “% Inhibition” value is on record as -6% and the Z score was determined as 0.85.
As for `CC1CCCC(NC(=O)c2cnn3c4c(cnc23)CCCCCC4)C1C` (configuration not stated), the “% Inhibition” value is on record as -11% and the Z score is 1.63.
In the case of `COC1CCC(N(C)C(=O)C2CCC3CCCCC3C2)CC1` (configuration not stated), the “% Inhibition” value is recorded as -2% and the Z score is 0.38.
For the compound `COC(=O)CCn1cc(-c2cc(C3CCCC3)nc(N)c2C#N)cn1`, the “% Inhibition” value is listed as -3% and the Z score was found to be 0.33.
Turning to `CCn1nc(C)c([C@H](C)Nc2ccc(C)nn2)c1C`, the “% Inhibition” value was -16% and the Z score stood at 2.43.
For the compound `Cc1noc(CCNC(=O)N(C)C2CC2)n1`, the “% Inhibition” value came out at 18% and the Z score was -2.25.
Taken in the same sequence, the figures for `CCOC(=O)c1c(C)[nH]c(C(=O)N2CC(N(C)C)C2)c1C` were -14% and 1.38.
Consider `Cc1nc2ccc(CNC(=O)[C@@H](c3ccc4c(c3)OCO4)N(C)C)cc2[nH]1`, for which the “% Inhibition” value is -2% and the Z score is given as 0.43.
Taken in the same sequence, the figures for `CC(Oc1ccccc1)C(=O)Nc1nc2n(n1)C(c1ccc(Cl)cc1)CC(=O)N2` (configuration not stated) were -1% and 0.19.
For `COc1cccc(CC[C@H]2CCCNC2)c1`, the “% Inhibition” value is reported as 0% and the Z score was determined as 0.06.
For the compound `Cc1cc(C)n(-c2ccc(-c3nnc(-c4cc5cc(Oc6ccccc6)ccc5[nH]4)s3)cc2)n1`, the “% Inhibition” value amounted to 40% and the Z score was -4.55.
The like results for `O[C@H](c1cccnc1)c1nccn1Cc1c(F)cccc1F` were, in that order, 2% and -0.34.
Taken in the same sequence, the figures for `Cc1nnccc1NC(=O)N(C)[C@H]1CCCC[C@H]1C(F)(F)F` were -6% and 0.9.
Taken in the same sequence, the figures for `COC(=O)c1cc(NC(=O)c2cccc(C(F)(F)F)c2)c[nH]1` were -4% and 0.63.
For `COc1ccc(F)c(F)c1CN1CCC([C@H](C)N2CCN(C)CC2)CC1`, the “% Inhibition” value was found to be 3% and the Z score is recorded as -0.38.
The like results for `O=C1COc2cc(C(=O)N3CC[C@H](Nc4ncccn4)[C@@H](O)C3)ccc2N1` were, in that order, 10% and -1.32.
Regarding `C=C(C)COc1ccc(NC(=O)N2CCCN3CCC[C@H]3C2)cc1`, the “% Inhibition” value was -10% and the Z score is recorded as 2.05.
Consider `O=C(CN1C(=O)c2ccccc2C1=O)N[C@H](c1ccccc1)C1CC1`, for which the “% Inhibition” value was 6% and the Z score is listed as -0.56.
Taken in the same sequence, the figures for `CC(=O)N[C@@H](C)Cc1nc(-c2ccc(F)c(F)c2)nn1CCO` were 0% and -0.03.
For `CCn1cc(-c2n[nH]cc2C(=O)NCCS(=O)(=O)N(C)C)cn1`, the “% Inhibition” value is recorded as -5% and the Z score is on record as 0.65.
For the compound `Cn1cc(-c2nc(C(=O)N3CCN(c4ccccc4)CC3)cs2)c2cccnc21`, the “% Inhibition” value is given as -17% and the Z score came to 2.85.
In the case of `O=C(C#Cc1ccccc1)N1CCC[C@H](CCC(=O)N2CCOCC2)C1`, the “% Inhibition” value is -14% and the Z score turned out to be 2.15.
The like results for `COc1cccc(CNC2(Cc3cc(CN4CCN(c5ccccc5)CC4)on3)COC2)c1` were, in that order, 13% and -1.53.
For the compound `C=C(C)CN(C)c1ccc(C(=O)NCC[C@H]2CCCCN2C)cn1`, the “% Inhibition” value is -7% and the Z score came to 0.98.
For `O[C@@H](Cn1ccnc1-c1cccnc1)c1cccc(Cl)c1`, the “% Inhibition” value is -19% and the Z score was 1.68.
Taken in the same sequence, the figures for `Cc1ccc(C)c(S(=O)(=O)NCCNC(=O)c2n[nH]c(C)c2C)c1` were 7% and -0.91.
With `CC(C)N1C[C@@H](NCc2cccc(O)c2)C[C@H]1C(=O)N1CCN(c2cccc(C(F)(F)F)c2)CC1`, the “% Inhibition” value is -5% and the Z score came to 0.54.
For the compound `COc1cc(CNCCCN2CCOCC2)ccc1OCc1ccc(Cl)cc1`, the “% Inhibition” value turned out to be 50% and the Z score is on record as -4.4.
On to `CC(C)(C)n1ncnc1NC(=O)c1cc(Cl)cc(Cl)c1`, for which the “% Inhibition” value was 39% and the Z score was -4.33.
For the compound `COc1cc(CN2CCN(Cc3c[nH]nc3C3CCCCC3)C[C@@H]2CCO)cc(OC)c1`, the “% Inhibition” value is reported as -3% and the Z score is listed as 0.59.
For the compound `Cc1cccnc1-c1noc(C[C@H]2C(=O)NCCN2C(C)C)n1`, the “% Inhibition” value is -15% and the Z score came out at 2.11.
Consider `CN1CCc2[nH]nc(C(=O)N(C)Cc3csc(-c4ccccc4)n3)c2C1`, for which the “% Inhibition” value was -17% and the Z score amounted to 3.37.
On to `COC(=O)N1CC(C)(NCc2cccc(C#N)c2)C1`, for which the “% Inhibition” value is recorded as -2% and the Z score was 0.45.
Consider `COc1ccc(OCC(=O)Nc2cc(S(=O)(=O)N3CCCC3)ccc2OCC(F)(F)F)cc1`, for which the “% Inhibition” value is given as -7% and the Z score stood at 0.83.
On to `Cc1nc(-n2nc(C)c(Cc3ccccc3Cl)c2O)sc1C(=O)Nc1ccccc1`, for which the “% Inhibition” value amounted to 0% and the Z score was found to be 0.01.
Consider `Cc1n[nH]c(C2CN(C(C)C(=O)N(C)Cc3ccco3)CCO2)n1` (configuration not stated), for which the “% Inhibition” value is listed as -1% and the Z score is on record as 0.21.
In the case of `CCN(CC)c1nc2cc(C(=O)NCc3ccc(F)cc3F)ccc2c(=O)n1-c1ccccc1`, the “% Inhibition” value is listed as -5% and the Z score is reported as 0.86.
The like results for `Cc1ccc(Br)cc1N1CC[C@@H](C(=O)NCc2ccco2)C1=O` were, in that order, -10% and 1.62.
Take `CC(=O)N1CCC[C@H](c2nc(C3CCCCC3)no2)C1`: the “% Inhibition” value is -14% and the Z score was 1.44.
